{"source": "the supplement of paper PMC11417369", "note": "The list shows a part of the results."}
{"system": "PfSIP2 AP2 domain 1 (GST-tagged)", "assay": "gcPBM binding intensity (ln(normalized median fluorescence intensity)); higher = stronger DNA binding", "procedure,_shortened": "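Plasmodium falciparum DNA-binding domains carrying a GST tag were expressed in E. coli and applied for 1 h, at about 25 μg on average, to an Agilent 4 × 180k array. The array held primer-extended double-stranded 36-bp intergenic genomic probes together with negative controls, and binding took place in 1× PBS with 1% milk, 0.2 mg/ml BSA, 0.5% salmon testes DNA and 0.03% Triton X-100. An Alexa488 anti-GST antibody detected bound protein, and the array was scanned at 488 nm. Binding intensity is taken as the highest Masliner-normalised natural-log median intensity across replicate spots of either probe orientation.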"}
{"sequence": "TGTGAAGTACCGAATGTGCACTGTGTGTGTTCTTTT [GTGCAC_site9613]", "gcPBM binding intensity (ln)": 10.1}
{"sequence": "ATAATTAATAAATAATGTACATATATATTATATTTT [XGTACX_site8546]", "gcPBM binding intensity (ln)": 6.93}
{"sequence": "TATAATATGAACAGTACACACAAAATAAATTCGTAT [CACACA_site3586]", "gcPBM binding intensity (ln)": 6.89}
{"sequence": "ATTCAAAATAATAGAATTGTTAAAGTTGTAAATTGA [CACACA_negctrl_site727]", "gcPBM binding intensity (ln)": 6.83}
{"sequence": "CTCAAACAATATTATATAATAAAGTACATATATATT [CACACA_negctrl_site446]", "gcPBM binding intensity (ln)": 7.13}
{"sequence": "AAAAATAAATATACATGTACTTAAAATAATCGAATA [XGTACX_site8432]", "gcPBM binding intensity (ln)": 7.01}
{"sequence": "TATATTTTTATATTTTGTACATATAGTAAATATAAA [XGTACX_site4768]", "gcPBM binding intensity (ln)": 7.01}
{"sequence": "ACGTATCAAAAAATTTGTACATATATATATATATAT [XGTACX_site1024]", "gcPBM binding intensity (ln)": 9.36}
{"sequence": "GAACAGAAAAAGAATAGTACATATATATATATATAT [XGTACX_site3700]", "gcPBM binding intensity (ln)": 9.16}
{"sequence": "AAAAATATATAAAGAAAAAGAATATAATATAAAATA [GTGCAC_negctrl_site208]", "gcPBM binding intensity (ln)": 6.91}
{"sequence": "ATTGTAGAATTTAATAGTACTCACGAATAAAATAAA [XGTACX_site6280]", "gcPBM binding intensity (ln)": 7.1}
{"sequence": "AAAAAAAAAGTATTATGTACATAAAAATAAAAAAAT [XGTACX_site4166]", "gcPBM binding intensity (ln)": 7.18}
{"sequence": "GTTTATGTTAAACCATGTACTTAATATTTTATTCTT [XGTACX_site3761]", "gcPBM binding intensity (ln)": 7.03}
{"sequence": "TATGATTCATAATAGTGTACGTAAAAATTGACTAGA [XGTACX_site5376]", "gcPBM binding intensity (ln)": 7.1}
{"sequence": "TATTAAAATATGTCAGTTCTTAAAAAGTTGATGAGT [GTGCAC_negctrl_site77]", "gcPBM binding intensity (ln)": 7.17}
{"sequence": "TATCGTTATATAATATGTACATATAAAATTTAAATT [XGTACX_site1887]", "gcPBM binding intensity (ln)": 7.31}
{"sequence": "AAAATGTATATATAAACATGCACACGTGGTTGTATA [TGCATGCA_site847]", "gcPBM binding intensity (ln)": 7.47}
{"sequence": "TCTTAAATTTCTTTATGTACATAATTAATATATTTA [XGTACX_site4456]", "gcPBM binding intensity (ln)": 6.95}
{"sequence": "TATATATTATGACCACCACACACCTATACGCATAAC [CACACA_site2447]", "gcPBM binding intensity (ln)": 7.27}
{"sequence": "ATGATAGTATGTATGAGTACGAAAAAAAAAAATTAA [XGTACX_site32]", "gcPBM binding intensity (ln)": 6.99}
{"sequence": "TGTGGGAATAACCACACACACACACCCATATATATA [CACACA_site5876]", "gcPBM binding intensity (ln)": 7.35}
{"sequence": "ATATATATATATATTGTACACACATTTATGCATATA [CACACA_site9055]", "gcPBM binding intensity (ln)": 9.1}
{"sequence": "AAATGCAAATGATGATGTACATACAAAAATTAAATT [XGTACX_site5323]", "gcPBM binding intensity (ln)": 7.15}
{"sequence": "ATATATATATATATATGTACATATCACTTTAAATAT [XGTACX_site3859]", "gcPBM binding intensity (ln)": 9.27}
{"sequence": "TTTTCTTAAAAAATCAAACACACATATATATATACA [CACACA_site2297]", "gcPBM binding intensity (ln)": 7.12}
{"sequence": "AATCTAATGTAATGCATACACACAACTATCCATCAA [CACACA_site535]", "gcPBM binding intensity (ln)": 6.9}
{"sequence": "AATATACGAAATTGTGCACACATATATTTATGTATG [CACACA_site1510]", "gcPBM binding intensity (ln)": 8.69}
{"sequence": "TAAAATGAAGGAATATGTACATAAATAAACATATAT [XGTACX_site6266]", "gcPBM binding intensity (ln)": 6.98}
{"sequence": "CATATATGATATATTAGTACATATATATATATATAT [XGTACX_site1574]", "gcPBM binding intensity (ln)": 9.76}
{"sequence": "CGATATAAAGATATTAGTACATATGCATGCTTGTCT [XGTACX_site8629]", "gcPBM binding intensity (ln)": 6.69}
{"sequence": "AAAAATAAAGTAAAAGCATGCTAGTATATGGAAAAT [TGCATGCA_site486]", "gcPBM binding intensity (ln)": 6.93}
{"sequence": "TTGAAATTAAATGACATACACACTATATTATATATT [CACACA_site3135]", "gcPBM binding intensity (ln)": 6.83}
{"sequence": "AGGTATATATATTTATGTACTTAAAATGAGAAAATA [XGTACX_site8337]", "gcPBM binding intensity (ln)": 7.09}
{"sequence": "CATATACGCAAACACACACACATATATATATATATA [CACACA_site501]", "gcPBM binding intensity (ln)": 9.58}
{"sequence": "TATAATAATATTTATTGTACAATTAGGTTAATTCAT [XGTACX_site1986]", "gcPBM binding intensity (ln)": 6.95}
{"sequence": "GCATTTTAATAATTATGTACATATATTATTCCTGGT [XGTACX_site3664]", "gcPBM binding intensity (ln)": 7.28}
{"sequence": "TTCCATCAAAAAATGGGTACACATTATAGAAATATT [XGTACX_site8482]", "gcPBM binding intensity (ln)": 7.18}
{"sequence": "AAAACATACAGATATACACACATATATATATATATA [CACACA_site5091]", "gcPBM binding intensity (ln)": 9.01}
{"sequence": "ATATTTAAACGATGGTGTACATATATTACAAGTTGT [XGTACX_site1743]", "gcPBM binding intensity (ln)": 7.46}
{"sequence": "ATATAGATCTACACTGCACACATTTTTAACACTGCT [CACACA_site1882]", "gcPBM binding intensity (ln)": 7.21}
{"sequence": "TATACATATATATATACACACATATATATATATACA [CACACA_site402]", "gcPBM binding intensity (ln)": 7.23}
{"sequence": "ACGCATGTAATTTATACACACATTCTTTTATATTTT [CACACA_site3708]", "gcPBM binding intensity (ln)": 6.95}
{"sequence": "AAATTATTATCGTTAATATGTATATATGTGCCAAGT [TGCATGCA_negctrl_site557]", "gcPBM binding intensity (ln)": 7.22}
{"sequence": "CAATTAAATATATGAACACACATGTGAACTTTCTAT [CACACA_site3977]", "gcPBM binding intensity (ln)": 6.86}
